# Experimental data as given in the supplement of paper PMC3334620.
# The full ranking holds about 33,000 sequences; the median of “E-score (-0.5 to 0.5)” is about -0.043, and the highest 2% start at about 0.37. This is one part of the list.
# Biological target: T1, Upc2 (UniProt Q12151)
# T1 sequence: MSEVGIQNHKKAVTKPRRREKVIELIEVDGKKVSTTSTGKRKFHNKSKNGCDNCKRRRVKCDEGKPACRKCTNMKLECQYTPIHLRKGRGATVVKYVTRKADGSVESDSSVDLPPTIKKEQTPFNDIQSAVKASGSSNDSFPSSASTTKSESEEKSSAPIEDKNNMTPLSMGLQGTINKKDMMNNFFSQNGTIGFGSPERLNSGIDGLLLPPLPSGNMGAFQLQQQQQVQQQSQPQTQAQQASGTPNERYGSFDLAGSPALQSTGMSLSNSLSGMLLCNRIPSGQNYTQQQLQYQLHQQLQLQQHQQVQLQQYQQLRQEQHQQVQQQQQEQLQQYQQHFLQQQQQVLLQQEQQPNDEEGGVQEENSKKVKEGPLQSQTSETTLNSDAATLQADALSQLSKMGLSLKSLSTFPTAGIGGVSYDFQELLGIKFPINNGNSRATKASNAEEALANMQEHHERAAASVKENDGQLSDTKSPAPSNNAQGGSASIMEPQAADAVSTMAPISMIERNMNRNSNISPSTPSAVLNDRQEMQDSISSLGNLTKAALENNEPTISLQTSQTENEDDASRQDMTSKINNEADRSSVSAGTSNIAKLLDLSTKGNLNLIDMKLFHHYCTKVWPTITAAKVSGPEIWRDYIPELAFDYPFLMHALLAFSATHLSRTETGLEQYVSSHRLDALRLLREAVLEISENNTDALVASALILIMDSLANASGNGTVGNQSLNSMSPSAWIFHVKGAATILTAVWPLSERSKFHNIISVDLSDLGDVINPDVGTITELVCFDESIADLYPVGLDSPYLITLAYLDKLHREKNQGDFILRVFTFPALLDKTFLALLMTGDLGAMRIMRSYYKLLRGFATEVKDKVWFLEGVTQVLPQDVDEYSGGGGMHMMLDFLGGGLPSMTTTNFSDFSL
# Assay: PBM E-score (8-mer binding enrichment) (E-score (-0.5 to 0.5)); higher = stronger / more preferred TF binding; most listed sequences are background and not binding sites
# Details: protein concentration: 200 nM; construct: GST-full length
# Method in brief: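 PURExpress in vitro transcription/translation supplied GST-tagged yeast transcription factors, either full-length or DNA-binding domain. Applied at about 100-200 nM to universal all-10-mer Agilent arrays double-stranded by primer extension, the bound protein was detected with fluorescent anti-GST. E-scores, modified Wilcoxon-Mann-Whitney statistics, were given by the Universal PBM Analysis Suite to ungapped eight-base words pooled with their reverse complements after masliner normalisation.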
row,Sequence,PBM E-score
1,TATTAAAA,0.117
2,ACTGTTAA,0.0793
3,CTCTAGAG,-0.154
4,AATCTGCG,0.132
5,AACAGTAA,-0.0904
6,ACTAGAGT,-0.203
7,AAAAAGTA,0.0865
8,CCCTTTAC,0.25
9,ACAGCTCT,-0.258
10,ATCGAGGC,-0.0501
11,ACGCCCGC,0.0502
12,AACTTTCG,0.0942
13,CAACGATG,0.0412
14,GATGACAC,0.0272
15,AATGGATA,-0.013
16,AGGAAAAG,-0.134
17,GTCTGTCA,0.0217
18,CCCTCTGA,-0.159
19,CATCGTCA,-0.163
20,GTGGGCCA,-0.0364
21,GTTCAGCA,0.171
22,CACCTGCC,-0.265
23,AGATGTAT,-0.0123
24,ACAGAATC,-0.0506
25,ACCTGGTG,-0.0762

row,Sequence,PBM E-score
1,AAAGGAGT,-0.0695
2,GGTCCAAC,-0.134
3,AATCGCGG,-0.106
4,GACTGAAC,0.0547
5,CGTCAGGA,-0.0877
6,GATGTACA,-0.098
7,TAACTCGA,0.109
8,AACTTGTC,-0.0131
9,CAGTAGCG,0.0627
10,CTAGGTAA,-0.158
11,ACCGCTAG,-0.136
12,AAACGAGG,0.481
13,ACACGTGA,0.00354
14,TATATTAA,0.113
15,ACTGCGAC,0.0311
16,AGTGGTGG,-0.0594
17,GAGCTGTA,-0.177
18,CCCTGTTA,-0.0929
19,GGCGGCAC,-0.0468
20,CATGTGCG,-0.0691
21,AAATAAAT,0.153
22,CGTCACTC,-0.0671
23,TCACGCAA,-0.0853
24,AGGGGCTA,-0.0284
25,CGTGCCAA,-0.129

row,Sequence,PBM E-score
1,ATTGTAAA,0.124
2,ATTCAACG,0.142
3,ACCTATAC,0.382
4,ATGGACTC,-0.0753
5,TATAGATA,0.177
6,CTGGGTCA,-0.239
7,CTAAACGC,0.416
8,GCATGGGC,-0.0794
9,TACCACCA,-0.12
10,ATTTCTGA,-0.166
11,AAGCCCCC,-0.0762
12,ATACTTAG,-0.0525
13,GGCCTGCA,-0.162
14,AGTTTTCG,0.124
15,GGGGCAAC,-0.0845
16,CCCTCATA,-0.217
17,TGCTCGAA,-0.0598
18,CCCTAAAC,0.307
19,ATAGAATG,-0.0602
20,CGCGAGCA,0.0612
21,GTTTCTGA,0.0261
22,AGACTAAC,-0.122
23,ACCGTAAC,0.27
24,AACCAGAT,0.0627
25,GGGAGTTA,-0.0875

row,Sequence,PBM E-score
1,CGGACCAA,-0.0814
2,CGGGTCTC,0.00304
3,ATACTCAA,0.0423
4,CTCCAACA,-0.134
5,CATACGAC,0.466
6,CATTAGGC,-0.217
7,AGTTCAAC,0.00196
8,CATGCCGA,0.0455
9,AGTCTACA,-0.115
10,CAACTGTG,-0.215
11,AGGGGGCG,0.0377
12,AGACCTAA,-0.0495
13,CAATCCCC,-0.169
14,TCTAGAAA,-0.00692
15,TAATACGA,0.429
16,CTCTATAC,0.397
17,AGCGCTAA,0.15
18,AAGTTAAG,-0.141
19,ATTAGTGG,-0.127
20,ACCGTTTA,0.458
21,AATGTGGT,-0.156
22,CGGACTCA,-0.244
23,TAACAAGA,-0.275
24,AATAACCC,0.0105
25,GGACTCCC,-0.22

row,Sequence,PBM E-score
1,AAATACAG,-0.0577
2,GATATGAC,-0.138
3,ACCTTCCA,0.0128
4,AGGGCTTA,-0.107
5,ACGACCTA,0.362
6,ATGCAGTG,-0.107
7,AATTCGCT,0.192
8,AGCGTGAG,-0.135
9,GCAAGATA,0.0262
10,CCTGTGGA,-0.331
11,GTGCTGGA,-0.0861
12,CTAGATGA,-0.00114
13,CAGGCACA,-0.374
14,AGAGGTGC,-0.139
15,GAGGTTTA,0.0651
16,GTAATAAC,0.0598
17,ACGCTAAC,0.128
18,GCGACCGC,0.08
19,ATGCCGGC,-0.13
20,GACGCCAC,-0.192
21,ATCGGACC,-0.0439
22,CCCCCAAC,-0.255
23,GTAGCAGA,0.00158
24,ACCCCGCG,-0.0712
25,AAGGAAGC,-0.232

row,Sequence,PBM E-score
1,TAGAACCA,-0.0454
2,ACCTCAGT,-0.0386
3,AGTGAGTC,-0.211
4,AAGCGTTA,0.0474
5,ATTTAGAG,-0.107
6,GCCCTTCC,-0.338
7,CAATTTGC,-0.192
8,GCTGGTCA,-0.0962
9,ATATGCAG,-0.22
10,CCTCAAAG,-0.39
11,AGCAGTGA,-0.0456
12,AGGGTCGA,-0.147
13,AACTGTCT,0.00544
14,CCGTTTAG,0.468
15,ATGGTGGA,-0.213
16,GCGAAGTA,0.0732
17,ACCGGGGC,-0.16
18,CACGGTGG,-0.079
19,ATCGACAC,0.0177
20,ACGGTGAC,-0.0336
21,CTTCACAA,-0.117
22,ACAATGAG,-0.0711
23,CCACGCTC,-0.281
24,AAGCGGAC,-0.133
25,ATTCGCTG,0.0613

row,Sequence,PBM E-score
1,AACCGCTT,0.0344
2,ATCGGGAG,-0.172
3,GACCGCGC,-0.0894
4,CGAGAAAC,0.173
5,ACGTCGAT,0.0778
6,ACTAACTC,-0.16
7,ACTTGTCT,-0.132
8,ATTCTCCA,0.0431
9,AGACGGGA,-0.153
10,CCCCCACA,-0.254
11,CCACGCCC,-0.165
12,ACCAATCA,-0.0784
13,GTCTTTCA,-0.0186
14,ACAGACAT,0.0642
15,ACGTTTGC,0.138
16,TACCATGA,-0.108
17,AGGGCCCG,-0.126
18,CTGATAAG,-0.16
19,CAATTAGC,-0.13
20,CCGTCATA,-0.0362
21,ACACTTTA,0.0396
22,ATCTTTCG,-0.0351
